Measured values published in the supplement of paper PMC11417369.
The list shows a part of the results.

These sequences were tested on PfAP2-HC AP2 domain (GST-tagged) (assay: gcPBM binding intensity (ln(normalized median fluorescence intensity)); higher = stronger DNA binding).
How it was run: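 Alexa488 anti-GST antibody, scanned at 488 nm, detected GST-tagged P. falciparum DNA-binding domains that had been expressed in E. coli and incubated for 1 h on an Agilent 4 × 180k array. The array carried primer-extended double-stranded 36-bp intergenic genomic probes and negative controls. Binding intensity is the highest Masliner-normalised natural-log median intensity across replicate spots of either orientation of each probe.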

Sequence | gcPBM binding intensity (ln)
TGTATACGCATATGTACACACATATATATGTATATG [CACACA_site3087] | 9.87
GTGTAATTATCAGCATAAATATGGTACATACATAAA [CACACA_negctrl_site323] | 9.69
AAAAGATTTATACATACACACATATTATAGTCACAT [CACACA_site7701] | 10.2
TACGAAAGGTAATATTGTACATTACAAAATTTTATA [XGTACX_site5512] | 9.43
TATGTATAAATATTAACACACAAAAAAAAAAAAAAA [CACACA_site6938] | 9.56
AATAAGCAGAAACACACACACAAAAAAAAAAAAAAA [CACACA_site719] | 10.1
ATATAAACAAAGCAGTGCACGTAAACAAAACATATA [CACACA_negctrl_site1076] | 10.2
GTTTGATAACACCTACAAACTCTTTTTTTTTTTTTT [CACACA_negctrl_site1134] | 9.51
AAATGAAGATTTAAATGTACGAGAGGGTATACAAAT [XGTACX_site5075] | 9.89
CATAATATTAAATCAGTGCAAATATACAGAATAAAT [GTGCAC_site9786] | 9.78
GACTTCTCCATATACACACACCAACAAATATAAAAA [CACACA_site7331] | 10.1
AAATTTATAAATTAAAGTACATATTTCTTGAATATT [XGTACX_site859] | 9.54
TATTAAATTATATAGACACACATTATGTATATATAT [CACACA_site345] | 9.78
TATAGATACACTTTGTGTACATAAAAATTGTATTAA [XGTACX_site7137] | 9.66
CTATACAATAAAAATTGTACATACATATATGTTATA [XGTACX_site5309] | 9.6
ATAATATGTTATTAAGTGCATATTAATTATTATTAT | 9.6
AATTTTTCTTTTTTTTGTACAGAATATATATTTTAT [XGTACX_site1419] | 9.69
ATATTTATGTAATGTTTGATTTTTTTTTTATGTGTG [CACACA_negctrl_site1422] | 9.88
ACATATACATACATATGTACATATACATAAATATAT [XGTACX_site1285] | 9.79
AAAAAAAAAATTGAAAGTACACAAATGGGGTATTAT [XGTACX_site3960] | 9.9
TACTGTTTAAAATATACACACATAATCAAAAAAAAA [CACACA_site2510] | 9.71
TATATATTTACATATTGTACAATATAAAAATAATTA [XGTACX_site19] | 9.28
TCGTTATCCATCTTCACACATATATATAGTAATATA [CACACA_site5492] | 9.75

Sequence | gcPBM binding intensity (ln)
TATATATATCTTTTGGTGCATATTTCGAATATATGT | 9.66
TCAAAGGAATTTTTATGTACATATAAACTTTATTCT [XGTACX_site3432] | 9.73
AAAAAAAAAAAAAAATGTACATATATATTTATATAT [XGTACX_site229] | 9.53
AACCCCAAGCCGTACTGTACATATATTTTTATTTTA [XGTACX_site142] | 9.91
AAAAGTTGTATTTGCACACATAAAAAAAAGATATTA [CACACA_site3840] | 9.97
TATAATATAAAAAAAAGTACACGAATTTTTTTTCAG [XGTACX_site6105] | 9.52
AAATAAATTTGACCAGTGCAATAACTTTGTATACCT [GTGCAC_site9446] | 9.63
ACAATATATTTTTGAGCATGCGCAAAAGAGAATGCA [TGCATGCA_site566] | 9.66
ATCCAAAAGAAAAATAGTACAGATATGAACAATATG [XGTACX_site6944] | 9.65
TAAAATCAATGTTCTTGTACTTAAAATGTTTGTTCT [XGTACX_site5490] | 9.72
TATTATTCTACTATTATATTCTATATTATTTATAGT [CACACA_negctrl_site499] | 9.78
ATATATCTATATAGAAATGTATATATATATATGTGT [TGCATGCA_negctrl_site349] | 9.77
AGTATAAAATTTGGTTGTACATTTTTAAAAAAATTA [XGTACX_site7519] | 9.37
AAAATTAAATTATTTACACACAATATTAAAATATTT [CACACA_site3244] | 9.62
TTTTTTTTTTTTTATACACACATTAAAATAAAAAAG [CACACA_site3946] | 9.31
AAAGAAAAAAAAAAAACACACAAAAAAAATCAAAAT [CACACA_site2871] | 9.89
CTCTTCCTTAATTTTTGTACTTAAAATTTTTTTTTT [XGTACX_site1628] | 9.79
TTATGCAAAAATAAATCAATATGTTGATATGTAAAT [GTGCAC_negctrl_site128] | 9.66
AACATATACTGTTTATGTACACATTGTTATATTAAT [XGTACX_site4276] | 9.81
ATATAATTTAATTTCTGTACATAAGAGAAAAAACAA [XGTACX_site4865] | 9.62
TACATTTTATGCATTTGTACACAAATAAATAAATAA [XGTACX_site2652] | 9.42
ACTTTAAAAAGATTCACACAAAATATATAAAAATAT [CACACA_site5334] | 9.5
ATATCAATTTTTGGTGGTACGTAGGAAGTTTCAGAA [XGTACX_site6881] | 9.66

Sequence | gcPBM binding intensity (ln)
ATTGATCTTTATTGTTGTACATTAAACGTTAATTTT [XGTACX_site1788] | 9.79
TACCTATAAAAGTACACACACACACGGATATAAATA [CACACA_site6569] | 10.8
ACTATAAATATATACACATGCGCACACACAAGTGGG [TGCATGCA_site432] | 10.1
AATAAAAAAATTAAAATTAAAAAATTAAAACTTAAA [CACACA_negctrl_site987] | 9.49
ATGGAAATTTTATCATGTACATATACCGTTGAATAA [XGTACX_site5420] | 9.63
TATTATATAATTTTAACACACAAGAATATAAACTTT [CACACA_site1363] | 9.55
TAACAAAATGTAAATAAACACACATATATATATATA [CACACA_site8352] | 10
AACATTCTATGTTGCACACAAAGAGAAAAATTTATT [CACACA_site3995] | 9.78
TAATTTAAATGATGTAGTACATATAAATATATCTAA [XGTACX_site262] | 9.51
TGAAGGAATACAGCTCGTACATGTGTAAAGAGATAA [XGTACX_site500] | 9.96
AAAAAGAAAAAACTTACACACATATATACCCCCATG [CACACA_site4463] | 10.2
TTAAAAAATATATGCGTGCACTAATATTTCATATGC | 9.58
TGAATTAACAAATAGACACACATATATATATATATA [CACACA_site3195] | 9.69
TACTATTTTTATAATACACACATATATTTGTGATAT [CACACA_site1775] | 9.84
ACCATTTGTACTTACGCACACATAAAATATATATAT [CACACA_site1545] | 9.97
TGTGGCCCTGCGAGGTGGTCATCATGAATACGAAAA [XGTACX_site1526] | 9.23
TCAAAAATTTATATAGTGCAATATATATATAATGTA | 9.45
TTGTAATATATAAAAGTGCATATATGGTTCCATATA [GTGCAC_site9544] | 9.65
TAATTTATTGTACGTGCATGCTATTTTTTATTTTTA [TGCATGCA_site1059] | 9.92
ATATGTGAATAAAAATGTACGTGTTCTTTTTTTTTT [XGTACX_site320] | 9.72
AACAAAAAAACAAACACACACACACCCATATATATA [CACACA_site3652] | 10.6
TCATACATTTTCCTTGCACACATTTATAATTAATGT [CACACA_site614] | 10.3
AAAAAAATCACATAATATACTTTATTTTATTTTGTA [GTGCAC_negctrl_site562] | 9.56

Sequence | gcPBM binding intensity (ln)
ACAAAGAACTATAATACACACAAGAATATATTGGAT [CACACA_site7771] | 10.3
TTATAAGATTTATGTACACACATATACACCCCTCTA [CACACA_site4562] | 9.94
TATATATAGAAACACACACACACATATATATATATT [CACACA_site2539] | 11.3
GTTATAGAAGCATTCACACACACACCGACATACACA [CACACA_site4914] | 10.3
ATAAATTATATTCAAGTGCATGTAACTTATTATTAT | 9.64
AATAATTAAATATATTTATAACAGGAAAATATTTAT [XGTACX_negctrl_site175] | 9.51
TAAATAATCATAGTTCTACACACCTATATTGCAAAA [CACACA_site8190] | 9.68
AAAAAAAAAAATTCCAGTACACACAATAATACTAAA [XGTACX_site5930] | 9.92
ATATATATAATATGATGTACTATTTTGATAAAAAAT [XGTACX_site3975] | 9.67
AATATATTGCACCATTGGACCTGAATAATTCTTCCA [CACACA_negctrl_site1071] | 9.54
GTAAGAAACGGACACACACACATATATATATATATA [CACACA_site4593] | 10.9
AAATAGTCTTCTCTTGCATGTAACAAATATATATAT [TGCATGCA_site428] | 9.59
TAGTAAGAATTACTGTGTACTAAAATATTAAAAAGT [XGTACX_site2578] | 9.77
AATAAAAACAAACAAAAAAACAAATAAATAAATAAA [CACACA_negctrl_site483] | 9.72
ATATTTTTTATAAAATGTACTTATTATTAGAATATA [XGTACX_site2460] | 9.4
ACATATAAGTTATATACACACAATAATATGTAAATA [CACACA_site6766] | 9.89
TACAAAATATGGTAATAAAGTAGTTACATGAATTGG [XGTACX_negctrl_site522] | 9.65
AATATATACATATGTATGCACTTTTTAATTATTTTT | 9.84
TATTATAATATATTTGTGCACATAATACCTCCGCTA [GTGCAC_site9570] | 9.66
GTTATAGAAGCATTCACACACACACGGACATACACA [CACACA_site6801] | 10.7
